The values that follow come from ChEMBL document CHEMBL4888484, “Replenishing the malaria drug discovery pipeline: Screening and hit evaluation of the MMV Hit Generation Library 1 (HGL1) against asexual blood stage Plasmodium falciparum ,using a nano luciferase reporter read-out” (2022).

About 540 (0.36%) of roughly 150,000 compounds showed an effect of 50% or more. Some of the results follow.

The assay concerns Plasmodium falciparum. Description: Primary screen in NF54 nanoGlo assay, in single point, at 2uM, 72h; a lower Z score goes with more inhibition. The format is functional, Erythrocyte. The note with it: timepoint 72 hour.
Take `O=C(N[C@H]1CO[C@@H](CN2CCC(F)(F)C2)[C@@H]1O)C1CCOCC1`: the “% Inhibition” value is listed as -2% and the Z score was 0.33.
Regarding `CCN(c1ccncc1)S(=O)(=O)c1cnnn1C`, the “% Inhibition” value is listed as -15% and the Z score is listed as 2.01.
For `CCc1nsc(NCCN2CCN(C(=O)C3CCCC3)CC2)n1`, the “% Inhibition” value is 8% and the Z score is on record as -0.68.
In the case of `Cc1ccc(S(=O)(=O)c2nc(Nc3ccccc3C(N)=O)sc2Cl)cc1`, the “% Inhibition” value is given as -1% and the Z score is 0.11.
Regarding `Cc1ccc(S(=O)(=O)N2CCOCCN(S(=O)(=O)c3ccc(C)cc3)CCN(S(=O)(=O)c3ccc(C)cc3)CC2)cc1`, the “% Inhibition” value came to 4% and the Z score was -0.64.
Regarding `OCCNc1nc2ccc(Br)cc2c(-c2ccccc2)c1-c1cc(-c2ccccc2)c2cc(Br)ccc2n1`, the “% Inhibition” value is recorded as -12% and the Z score is 2.02.
On to `COc1ccc(C2=Nn3c(C)nnc3-c3ccccc3C2)cc1`, for which the “% Inhibition” value was -15% and the Z score was found to be 1.94.
With `CCc1ncncc1C(=O)NCC(CC)(CC)CO`, the “% Inhibition” value was found to be 32% and the Z score is on record as -3.61.
As for `CC(C)(C(=O)N1CCC(c2ncc(Cl)cn2)CC1)n1cc(N)cn1`, the “% Inhibition” value was -6% and the Z score stood at 1.01.
For `CN(CC(N)=O)Cc1nc(CCc2ccccc2)no1`, in that order: -21% and 4.03.
For `Cn1c(Cc2n[n+]3c(-c4ccccc4)cc(-c4ccccc4)nc3n2C)n[n+]2c(-c3ccccc3)cc(-c3ccccc3)nc12`, in that order: 95% and -10.43.
The corresponding values for `CC1CN(C2CC2)CC1NC(=O)N1Cc2ccc(Br)cc2C1` (stereo not drawn) are -8% and 1.43.
As for `Cc1nc(-c2ccc(NC(=O)C(C)C)cc2)co1`, the “% Inhibition” value is reported as -10% and the Z score stood at 1.47.
Take `C=CCN=C(NCc1nnc2n1CCC2)N[C@@H](C)c1ccccc1`: the “% Inhibition” value is -8% and the Z score is given as 0.87.
For the compound `Cn1cc(Nc2cccc(NS(=O)(=O)c3cccc(F)c3F)c2)cn1`, the “% Inhibition” value is given as -9% and the Z score is listed as 1.52.
On to `Cc1nnc(OCC2CC(F)(F)C2)s1`, for which the “% Inhibition” value is given as -12% and the Z score was determined as 1.73.
In the case of `Cc1cnn(C2CCCC2)c1NC(=O)CN1CCCN(C)CC1`, the “% Inhibition” value is -6% and the Z score turned out to be 1.09.
`COc1cccc(CS(=O)(=O)Cc2nnc(C3CCC3)n2C)c1`: the “% Inhibition” value is on record as -4% and the Z score is 0.63.
On to `CC1CN(C(C)C)CC1NC(=O)Nc1cccc2c1CN(C)C2=O` (stereo not drawn), for which the “% Inhibition” value is -4% and the Z score is 0.52.
The corresponding values for `Cc1cccc(CNC(=O)C(C)Oc2ccc3c(c2)C(c2cccc(C)c2)N(C(=O)c2ccccc2)CC3)c1` (stereo not drawn) are 3% and -0.29.
Turning to `CCc1nc(CN(C[C@H]2CCCCO2)C(C)C)n[nH]1`, the “% Inhibition” value is listed as -16% and the Z score is reported as 1.81.
For `CCC(O)(C(=O)Nc1cc(C2CCCO2)n[nH]1)c1cccc(Cl)c1` (stereo not drawn), in that order: -42% and 4.87.
As to `Cc1ccc(OCCC(=O)N[C@@H](CC(C)C)C(=O)N(C)C)c(C)c1`, the “% Inhibition” value was -8% and the Z score came out at 1.62.
As for `O=C(c1cc(C2CC2)on1)N1CCCc2ccccc21`, the “% Inhibition” value is recorded as -7% and the Z score is recorded as 0.8.
For `COc1ccc([C@H](C)NC(=O)c2c(C)noc2-c2ccccc2C)cc1`, in that order: 10% and -1.49.
In the case of `CC(C)c1cc(NCc2cnc(C(C)(C)C)s2)no1`, the “% Inhibition” value worked out at 3% and the Z score is reported as -0.44.
For `Cc1cccc(OCc2nc(CN(CCN3CCOCC3)C(=O)NC(C)C)cs2)c1`, in that order: -4% and 0.69.
The corresponding values for `COCCn1nc([C@H]2CCCN(C(=O)c3ccc(F)cc3Cl)C2)n(C2CC2)c1=O` are -4% and 0.49.
For `O=C(c1ccoc1)N1CCC[C@@H]1Cn1nccn1`, in that order: -10% and 1.82.
As for `COc1ccc(CN2C(=O)COC[C@H]2C(=O)NC2CCCCCC2)c(OC)c1`, the “% Inhibition” value is recorded as -5% and the Z score was determined as 0.8.
Consider `O=C(NCCCC1CCCC1)c1cc2n(n1)C[C@@H](O)CNC2=O`, for which the “% Inhibition” value was -10% and the Z score came to 1.01.
For `Cc1nc(C)c(CNC(=O)c2cncc(Cl)c2C)s1`, the “% Inhibition” value was -13% and the Z score is given as 1.8.
As for `Cc1cccc(Nc2ncc(Cc3ccccc3C)s2)n1`, the “% Inhibition” value is -13% and the Z score is 1.9.
In the case of `Cc1ccc(NC(=O)CCNC(=O)[C@H]2CCOC2)cc1`, the “% Inhibition” value is -10% and the Z score came out at 1.63.
On to `Cc1[nH]c2ccccc2c1C1C2C(=O)N(c3cccc(Cl)c3C)C(=O)C2ON1c1ccccc1` (stereo not drawn), for which the “% Inhibition” value is -5% and the Z score worked out at 0.81.
The corresponding values for `O=C(Nc1nnc(C(F)(F)F)[nH]1)[C@H]1CC(=O)N(c2ccccc2)C1` are 0% and -0.01.
As for `CCCNC(=O)CCc1c(-c2ccc(Cl)cc2)nc2ccc(-c3cc4ccccc4s3)cn12`, the “% Inhibition” value is -16% and the Z score was 1.9.
For `O=C(Nc1ccc(Oc2ccccc2)cc1)C1CCN(C(=O)c2ccc(Cl)cc2Cl)CC1`, in that order: -1% and 0.19.
The corresponding values for `Cc1cccc(CNc2cnn(-c3nccs3)c2)c1` are -8% and 0.74.
For `CCNC(=NCc1ccc(Br)cc1OC)NCC`, in that order: 1% and -0.16.
Take `Cc1cc2c(cn1)/C(=C\c1ccccc1)c1ccccc1-2`: the “% Inhibition” value is -8% and the Z score was 0.75.
The corresponding values for `CC(=O)NC(=NOCc1ccc(Br)cc1)c1nonc1NC(C)=O` are 11% and -1.39.
On to `O=C(CCN1CCCO1)N1CCC[C@H](Nc2cccc(F)c2)C1`, for which the “% Inhibition” value turned out to be 9% and the Z score is given as -1.2.
The corresponding values for `CC(C)C(CNC1CCOC1)ONC(=O)OC(C)(C)C` (stereo not drawn) are -17% and 2.24.
Turning to `C/C=C/CC(=O)N1CCc2c(c(C(=O)O)nn2CCCc2ccccc2)C1`, the “% Inhibition” value is listed as -7% and the Z score was determined as 1.43.
Take `CCc1cc(C(=O)N2CCCC[C@@H]2C)c2c(C)noc2n1`: the “% Inhibition” value is reported as 2% and the Z score is on record as -0.28.
The corresponding values for `CC(C)CN(CC(C)C)C(=O)NCc1cccnc1` are 3% and -0.53.
The corresponding values for `Cn1nnc2c(N3CCN(S(=O)(=O)Cc4ccccc4)CC3)ncnc21` are -6% and 0.93.
The corresponding values for `CN(C)S(=O)(=O)c1ccc(N2CCCC2)c(C(=O)N2CCN(Cc3ccc(Cl)s3)CC2)c1` are 0% and -0.01.
`Cc1nc(CN(CCO)c2cccc(F)c2)no1`: the “% Inhibition” value is -2% and the Z score is 0.3.
The corresponding values for `CC(NC(=O)C1CCn2ccnc2C1)C(O)Cc1ccccc1` (stereo not drawn) are -16% and 1.44.
For `Cc1cnc(-c2cccc(NC(=O)c3c(C)noc3C)c2)o1`, the “% Inhibition” value is on record as -6% and the Z score came out at 1.21.
For `CCc1noc(C(C)NC2CCCCCC2C(N)=O)n1` (stereo not drawn), in that order: -6% and 0.68.
On to `CCn1cc(NC(=O)NCc2nc(Cc3cccs3)no2)nn1`, for which the “% Inhibition” value is -3% and the Z score stood at 0.6.
In the case of `Cn1nccc1S(=O)(=O)N1CCC[C@H](c2c[nH]c3ncccc23)C1`, the “% Inhibition” value was 3% and the Z score is reported as -0.3.
The corresponding values for `COCCN1CC(=O)N[C@H]2CN(Cc3nc(C(C)C)no3)C[C@@H]2OCc2cccc(c2)Oc2cc(ccc2OC)CCC1=O` are 6% and -1.1.
The corresponding values for `O=C(C1CCC1)N1CC[C@@]2(CCCN(CC3CCCCC3)C2=O)C1` are 1% and -0.12.
The corresponding values for `O=C(c1c(F)cccc1F)N1CCN(c2nc3nccc(-c4cccc(C(F)(F)F)c4)n3n2)CC1` are -1% and 0.14.
For the compound `Cc1cc(NC(=O)N(Cc2ccccc2)Cc2scnc2C)n(C(C)C)n1`, the “% Inhibition” value is -4% and the Z score is 0.57.
The corresponding values for `Cc1nc(N2CCCC2)nc(C)c1NC(=O)c1cccnc1` are -3% and 0.45.
As to `Cc1ccn(-c2cc(NCCNC(=O)c3cccs3)ncn2)n1`, the “% Inhibition” value worked out at 0% and the Z score was -0.06.
For `COc1ccc(OCC(=O)Nc2cc(C)nn2-c2nc3c(cnn3-c3cccc(C)c3C)c(=O)[nH]2)cc1`, in that order: -6% and 1.15.
Turning to `Cc1ccc(-c2nn(-c3cccc(F)c3)cc2CNCCc2ccncc2)o1`, the “% Inhibition” value is listed as -5% and the Z score was found to be 0.82.
The corresponding values for `CCc1nc(C#N)c(NCCc2ccc(OC)c(OC)c2)o1` are -5% and 0.66.
`CCc1nnc(-c2[nH]c(C)c(S(=O)(=O)Nc3cccc(Cl)c3)c2C)o1`: the “% Inhibition” value was -5% and the Z score worked out at 0.66.
`COCCN1C[C@@H](Cc2ccc3c(=O)[nH]ccc3c2)CC1=O`: the “% Inhibition” value is -21% and the Z score was 2.65.
For `CCN1CCCC[C@@H]1CNCc1ccnn1-c1ccccc1`, in that order: -5% and 0.8.
In the case of `C=CCNC(=O)c1cn2c3c(cc(Br)cc3c1=O)CC2`, the “% Inhibition” value is given as -7% and the Z score came out at 1.32.
The corresponding values for `O=C(Nc1cccc(C#Cc2ccccn2)c1)c1ccco1` are -6% and 0.85.
The corresponding values for `Cc1cccc(C)c1C(=O)NCc1nc(CN2CCCCC2)no1` are -9% and 1.23.
The corresponding values for `Cc1nc(N2CCc3[nH]nc(C(=O)N(C)C)c3C2)c2sccc2n1` are 2% and -0.36.
In the case of `COc1nc(NC(=O)c2cc(C)cc(F)c2)n[nH]1`, the “% Inhibition” value is -20% and the Z score was found to be 1.78.
`COc1ccc(-c2cc(C(=O)NCCN3CCN(c4ccccc4)CC3)c3cc(C(C)C)ccc3n2)cc1`: the “% Inhibition” value amounted to 3% and the Z score is -0.39.
On to `Cc1ncccc1N[C@@H](C)CS(C)(=O)=O`, for which the “% Inhibition” value is listed as -14% and the Z score is 1.93.
For `CC(C)c1csc(CCNC(=O)CCN2C[C@@H](C)O[C@@H](C)C2)n1`, in that order: -5% and 0.93.
For `CC(C)C[C@H](NC(=O)NCCc1ncnn1C)C(N)=O`, in that order: 4% and -0.69.
For `N#Cc1cncc(NCC2CCCCCC2)n1`, in that order: -16% and 1.97.
Turning to `O=C(O)[C@@H](c1ccccc1F)N1CCC(c2nc(-c3ccccc3)no2)CC1`, the “% Inhibition” value is given as -19% and the Z score stood at 2.05.
For `C[C@@H](C(=O)Nc1cccc(-c2nnn(C)n2)c1)n1cnc2ccccc2c1=O`, in that order: -10% and 1.29.
`Cc1cc2c(c(=O)n(-c3ccccc3)c(=O)n2CC(=O)Nc2ccc(F)c(Cl)c2)n1C`: the “% Inhibition” value is -22% and the Z score is 2.01.
For `Cc1cc(N2CCS(=O)(=O)[C@@H](C)C2)c2cccc(F)c2n1`, in that order: 10% and -1.14.
In the case of `O=C(Nc1csnc1-c1ccccc1)c1ccc(F)cc1Cl`, the “% Inhibition” value is given as -6% and the Z score is 0.6.
As to `O=c1c2ccccc2nnn1CCOc1cccc(Cl)c1`, the “% Inhibition” value is recorded as -6% and the Z score is reported as 1.11.
For `O=S(=O)(c1cncc(F)c1)N1CCC(F)(c2ccc(Cl)cc2)CC1`, in that order: -7% and 0.93.

By % Inhibition is commonly meant the drop in the measured response relative to a control, in per cent.
